# B1: anti-mouse CD45-ADC: anti-mouse CD45-ADC containing an anti-CD45 antibody conjugated to pyrrolobenzodiazepine (PBD); targets the CD45.2 isoform of mouse CD45 (conjugate)
# heavy: EVQLVESGGGLVQPGGSLRLSCAASGFTFEAYSMNWVRQAPGKGLEWVSYISLSGATIHYADSVKGRFTISRDNAKNSLYLQMNSLRAEDTAVYYCARGGQYYYTSSDYGEVAFDIWGQGTMVTVSSASTKGPSVFPLAPSSKSTSGGTAALGCLVKDYFPEPVTVSWNSGALTSGVHTFPAVLQSSGLYSLSSVVTVPSSSLGTQTYICNVNHKPSNTKVDKKV[omitted - human IgG1 Fc with L234A L235A D265C H435A (EU numbers)]
# light: DIVMTQSPLSLPVTPGEPASISCRSSQSLVSSGYNYLDWYLQKPGQSPQLLIYFGSSRASGVPDRFSGSGSGTDFTLKISRVEAEDVGVYYCMQRRRTPWSFGGGTKVEIKRTVAAPSVFIFPPSDEQLKSGTASVVCLLNNFYPREAKVQWKVDNALQSGNSQESVTEQDSKDSTYSLSSTLTLSKADYEKHKVYACEVTHQGLSSPVTKSFNRGEC
# Tests used:
# Balb/c mice (CD45.2+) = assay: Proteoglycan-induced arthritis (PGIA) model with congenic BMT; type: in vivo, mouse
# Description: Conditioning with an anti-mouse CD45-ADC (anti-CD45 mAb conjugated to PBD) prior to bone marrow transplant was assessed in mouse proteoglycan-induced arthritis (PGIA), a murine model of rheumatoid arthritis. As depicted in FIG. 9A, Balb/c mice (CD45.2+) were given 3 immunizations (study day 0, 21, and 42) with recombinant human core G1 aggrecan (60 μg in 2 mg DDA). Animals were treated on day 11 post the final immunization (study day 53) and conditioned animals were transplanted with Balb/c CD45.1+ congenic BM 48 hours later. Animals treated with a neutralizing monoclonal antibody to murine TNFα received 500 μg/mouse IP weekly starting on study day 53.
# The clinical scoring system for the model as developed by Glantt and Mikecz (Methods in Molecular Medicine, Vol. 102 (17):313-338) was used to score animals, with examples from control and CD45-ADC-treated animals shown in FIG. 9D.
# [1] = system: proliferating allogeneic T cells; assay: Sclerodermatous GvHD (scGVHD) model, in vivo T cell depletion; set-up: species or system mouse
# Description: DBA/2 and Balb/c (CD45.1) mice were purchased from the Jackson Laboratories. Balb/c (CD45.1) mice were conditioned with 6.5 Gy total body irradiation (TBI) 24 h prior to allogeneic (Allo) adoptive cell transfer of DBA/2 (CD45.2) splenocytes (see study design in FIG. 3A).
# Host animals (CD45.1+) were treated with a single intravenous dose (3 mg/kg) administration of anti-mouse CD45-ADC, or isotype-ADC 7 days post initiation of scGvHD (CD45.2+ cells). Animals were euthanized on day 12 post initiation (5 days post ADC administration). Tissues (blood, spleen) were analyzed for allogeneic cells, T-cells, and proliferating T cells (FIGS. 3B and 3C).
# RIP-OVA mice = assay: Adoptive transfer model of Type I diabetes (RIP-OVA/OT-I/II); type: in vivo, mouse; conditions: 1 or 3 mg/kg single dose plus congenic HSC transplant; n=6
# Text: RIP-OVA mice are B6 mice that express chicken ovalbumin in β-islet cells of pancreas. Central and peripheral tolerance mechanisms combine such that the adaptive immune system recognizes OVA as self. OT-I (MHC I-restricted) and OT-II (MHC II restricted) are two TCR Tg lines that specifically recognize epitopes of OVA. They were maintained on a B6 background.
# Adoptive transfer of OT-I and OT-II into RIP-OVA mice led to destruction of β islet cells and onset of diabetes. Diabetes onset was monitored by blood glucose level (tail vein nick to test on strips; glucose >14.3 mmol/L). Mice became diabetic in this model 5-12 days after transfer of CD8+ OT-I cells (two consecutive measurements of 250 mg/dL, Drujont PLoS One 2014). Mice were peeled off on day 6 post adoptive transfer (n=4/treatment). Flow cytometry was performed on peripheral blood, spleen, dLN, and pancreas for Vβ5, Vα2 to measure transferred cells. Subsequently, mice (n=6 mice/group) were transplanted with 2×10^7 cells from B6 CD45.1 two days post-treatment. Body weight, BCS, and blood glucose 2× week were measured as endpoints.
# RIP-OVA mice were treated with either a vehicle control, anti-Thy1.2 (500 ug), 9 Gy TBI, 1 mg/kg or 3 mg/kg Isotype-ADC (Iso-PBD), or 1 mg/kg or 3 mg/kg CD45-ADC (CD45-PBD).
# C57BL/6 (CD45.2+) mice = assay: MOG-induced EAE model with congenic transplant; type: in vivo, mouse
# Description: Experimental Autoimmune Encephalomyelitis (EAE) Model: C57BL/6 (CD45.2) mice were induced with MOG35-55 peptide in complete Freund's adjuvant, followed by the administration of pertussis toxin (PTX) at 4 h post MOG35-55 and 24 h post initial dose of PTX. Disease onset was around 9-12 days post induction. Animals were scored twice a day for a duration of 80 days post EAE induction. EAE Clinical Scoring Scale: 1-limp tail; 2-partial hind limb paralysis; 3-Complete hind limb paralysis; 4-Complete hind and partial front limb paralysis; 5-moribund bound. Animals were euthanized at 2 consecutive scores of 4. Terminal analysis of tissues (peripheral blood, lymph nodes) were evaluated to determine chimerism and immune component of the relapsing EAE mice. Lymph node cells were stimulated (S) with PMS/lonomycin (50 ng/mL) and Brefeldin A (1 μg/mL) or not stimulated (NS) and evaluated for T cell chimerism (donor, host) and IL-17 production.
# To induce EAE in a murine model, C57BL/6 (CD45.2+) mice were induced with MOG35_55 peptide in complete Freund's adjuvant, followed by the administration of pertussis toxin (PTX). […]
# C57BL/6 (CD45.2) mice = assay: Conditioning for congenic bone marrow transplant in mice; type: in vivo, mouse
# Description: C57BL/6 (CD45.2) and C57BL/6 (CD45.1) mice were purchased from the Jackson Laboratories. C57BL/6 (CD45.2) mice were conditioned with a single intravenous dose administration of anti-mouse CD45-ADC (0.3, 1, or 3 mg/kg) or Isotype-ADC (isotype control mAb conjugated to PBD) (3 mg/kg) 48 h prior to transplant (see FIG. 1A for depiction of study design). 5 Gy TBI was used as the conventional conditioning positive control administered 24 h prior to transplant. Conditioned mice were transplanted with 2×10^7 whole bone marrow cells harvested from pooled C57BL/6 CD45.1 congenic donor, and chimerism was assessed over 16 weeks. Peripheral blood was harvested at week 4, 8, 12, and 16, and assessed by flow cytometry.
# To model this approach in mice, an ADC targeting murine CD45 (anti-CD45 mAb conjugated to PBD) was generated as a single conditioning agent for murine congenic transplant. The murine CD45 ADC specifically targets the CD45.2 isoform of mouse CD45, and is engineered to eliminate effector function, allow for site-specific conjugation of linker payload, and be rapidly cleared. The payload for this murine tool ADC is potent and preferentially kills dividing cells. The anti-mouse CD45 ADC was evaluated for the ability to condition recipients in a murine congenic transplant model following a single myeloablative dose. This ADC was further evaluated for its ability to eliminate pathogenic host-reactive cells and enable immune reset in recipients in the context of multiple murine models of autoimmune disease, including MOG-induced experimental autoimmune encephalitis (EAE; a murine model of multiple sclerosis (MS)), proteoglycan-induced arthritis (PGIA), type 1 diabetes, and sclerodermatous graft-vs-host disease (scGVHD).
# murine T cells = assay: In vitro killing of αCD3-stimulated murine T cells; type: cell-based, mouse
# Description: Mouse PBMCs were cultured with plate bound αCD3 clone 145-2C11C to promote survival and expansion of murine T cells. T cells were cultured with an anti-mouse CD45-ADC (anti-CD45 mAb conjugated to PBD) or an isotype-ADC, and total T cell number and percentage of proliferating (Ki67+) T cells were assessed.
# resting T cells = assay: Adoptive transfer of splenocytes from treated B6 mice into NSG hosts (allogeneic response); type: in vivo, mouse; conditions: splenocytes isolated 7 days after treatment of B6 mice
# Description: B6 mice (H-2^b) were treated with vehicle, Isotype-ADC, or CD45-ADC (anti-CD45 mAb conjugated to PBD). After 7 days, splenocytes were isolated, labelled with CellTrace Violet, and adoptively transferred into naïve, immunodeficient NSG hosts (H-2^g7, H-2d). Cells were isolated from peripheral blood (d2 and d7) and spleen (d7) at various times post transfer and assessed for CTV staining intensity (FIG. 8A), the absolute number of T cells in the peripheral blood as a function of days post-transfer (FIG. 8B), and the absolute number of T cells in the spleen seven days post-transfer (FIG. 8C).
molecule,measurement,setting,value
B1,full congenic donor chimerism enabled in peripheral blood and bone marrow,"Balb/c mice (CD45.2+); 2 mg/kg, 3 weeks post-transplant",enabled full congenic donor chimerism
same,arthritis disease progression,"Balb/c mice (CD45.2+); therapeutic intervention day 11 post 3rd immunization, with BMT",halted disease progression
same,depletion of T-cells in spleen or peripheral blood,"[1]; 3 mg/kg single iv dose 7 days post initiation, 5 days post ADC, compared to Isotype-ADC",greater depletion of T-cells
same,depletion of proliferating allogeneic T cells,"[1]; 3 mg/kg single iv dose, compared to isotype-ADC",selectively depletes a greater percentage of proliferating allogeneic T cells
same,diabetes incidence,RIP-OVA mice,zero out of the 6 mice
same,EAE disease onset (FIG. 5E),C57BL/6 (CD45.2+) mice; 1 mg/kg CD45-ADC,21 days
same,EAE peak disease score (FIG. 5E),C57BL/6 (CD45.2+) mice; 1 mg/kg CD45-ADC,2.1
same,EAE disease onset (FIG. 5E),C57BL/6 (CD45.2+) mice; 3 mg/kg CD45-ADC+BMT,42 days
same,EAE peak disease score (FIG. 5E),C57BL/6 (CD45.2+) mice; 3 mg/kg CD45-ADC+BMT,0.75
same,Incidence,"C57BL/6 (CD45.2+) mice; Table 3, EAE incidence, treatment groups of FIG. 5G",25%
same,Mean Time to EAE onset,"C57BL/6 (CD45.2+) mice; Table 3, treatment groups of FIG. 5G",38 days
same,donor chimerism in EAE mice (terminal analysis of tissues),"C57BL/6 (CD45.2+) mice; conditioning day 5 post-immunization, congenic transplant 48 h later",full donor chimerism
same,mean time to EAE disease onset,C57BL/6 (CD45.2+) mice; conditioning followed by congenic transplant prior to disease onset (FIG. 5G),38 days
same,EAE disease incidence,"C57BL/6 (CD45.2+) mice; conditioning followed by congenic transplant prior to disease onset (FIG. 5G), n=12",25%
same,peak disease score in active EAE,C57BL/6 (CD45.2+) mice; treatment at day 13,2.3
same,peak disease score in active EAE,"C57BL/6 (CD45.2+) mice; treatment on day 10, 3 mg/kg, followed by congenic transplant",0.75
same,progression of disease activity in active EAE,C57BL/6 (CD45.2+) mice; treatment on day 10 or day 13,halted progression of disease activity
same,donor chimerism following congenic transplant,"C57BL/6 (CD45.2) mice; 3 mg/kg, iv, single dose, 48 h prior to transplant",full donor chimerism
same,myeloablation in recipient mice,C57BL/6 (CD45.2) mice; single dose 3 mg/kg,full myeloablation
same,depletion of LT-HSCs (Lin−Kit+Sca−1+CD150+CD48−),"C57BL/6 (CD45.2) mice; single dose 3 mg/kg, congenic mouse transplant model",> 99%
same,chimerism at 16 weeks,"C57BL/6 (CD45.2) mice; single dose 3 mg/kg, transplanted with congenic BMT",> 90%
same,proliferating T cells (Ki67+),"murine T cells; increasing doses, compared to Isotype-ADC",dose responsive decrease of proliferating T cells
same,total T cell number,murine T cells; vs. Isotype-ADC,substantially reduces the number of T cells
same,T cell expansion after adoptive transfer into immunodeficient allogeneic recipients,resting T cells,could not proliferate

# Source: patent publication US12403200B2, “Methods and compositions for treating autoimmune diseases” (priority 2019, dated 2025)
